≈ marks a conversion by molar mass, not a printed value. Read-outs that look alike come from different tables or passages of the source.
Experiments:
[1] = system: Klebsiella pneumoniae J 14368/08 ESBL positive
[2] = system: Klebsiella pneumoniae D 11750/08

With `O=C(Nc1cnc(Cl)cn1)c1ccc(Cl)cc1` [Compound 2l] the “MIC KP-E” value ([1]; 24 h) was > 125 µM, the “MIC KP-E” value ([1]; 48 h) was > 125 µM and the “MIC KP” value ([2]; 24 h) was > 125 µM. The “MIC KP” value ([2]; 48 h) was > 125 µM.

For `CC(=O)Oc1ccc(C(=O)Nc2cnccn2)cc1` [Compound 1d-Ac], the “MIC KP-E” value ([1]; 24 h) was > 500 µM, the “MIC KP-E” value ([1]; 48 h) was > 500 µM and the “MIC KP” value ([2]; 24 h) was > 500 µM. For the same compound, the “MIC KP” value ([2]; 48 h) was > 500 µM.

In the case of `O=C(Nc1cnccn1)c1cccc(C(F)(F)F)c1` [Compound 1n], the “MIC KP-E” value ([1]; 24 h) is reported as > 125 µM, the “MIC KP-E” value ([1]; 48 h) is reported as > 125 µM and the “MIC KP” value ([2]; 24 h) is reported as > 125 µM. The “MIC KP” value ([2]; 48 h) was > 125 µM.

With `O=C(Nc1cnccn1)c1ccccc1O` [Compound 1b] the “MIC KP-E” value ([1]; 24 h) was > 500 µM, the “MIC KP-E” value ([1]; 48 h) was > 500 µM and the “MIC KP” value ([2]; 24 h) was > 500 µM. The “MIC KP” value ([2]; 48 h) was > 500 µM.

`CCc1ccc(C(=O)Nc2cnc(Cl)cn2)cc1` [Compound 2i] was tested, and the “MIC KP-E” value ([1]; 24 h) was > 125 µM, the “MIC KP-E” value ([1]; 48 h) was > 125 µM and the “MIC KP” value ([2]; 24 h) was > 125 µM. For the same compound, the “MIC KP” value ([2]; 48 h) was > 125 µM.

With `O=C(Nc1cncc(Cl)n1)c1ccccc1Cl` [Compound 3j] the “MIC KP-E” value ([1]; 24 h) was > 500 µM, the “MIC KP-E” value ([1]; 48 h) was > 500 µM and the “MIC KP” value ([2]; 24 h) was > 500 µM. The “MIC KP” value ([2]; 48 h) was > 500 µM.

`COc1ccccc1C(=O)Nc1cnccn1` [Compound 1e] was tested, and the “MIC KP-E” value ([1]; 24 h) was > 500 µM, the “MIC KP-E” value ([1]; 48 h) was > 500 µM and the “MIC KP” value ([2]; 24 h) was > 500 µM. For the same compound, the “MIC KP” value ([2]; 48 h) was > 500 µM.

`O=C(Nc1cnc(Cl)cn1)c1cccc(O)c1` [Compound 2c] was tested, and the “MIC KP-E” value ([1]; 24 h) was > 500 µM, the “MIC KP-E” value ([1]; 48 h) was > 500 µM and the “MIC KP” value ([2]; 24 h) was > 500 µM. For the same compound, the “MIC KP” value ([2]; 48 h) was > 500 µM.

`O=C(Nc1cnc(Cl)cn1)c1ccccc1O` [Compound 2b] was tested, and the “MIC KP-E” value ([1]; 24 h) was 250 µM (≈ 62.4 µg/mL), the “MIC KP-E” value ([1]; 48 h) was 250 µM (≈ 62.4 µg/mL) and the “MIC KP” value ([2]; 24 h) was 250 µM (≈ 62.4 µg/mL). For the same compound, the “MIC KP” value ([2]; 48 h) was 250 µM (≈ 62.4 µg/mL).

With bacitracin [reference compound] the “MIC KP-E” value ([1]; 24 h) was > 500 µM, the “MIC KP-E” value ([1]; 48 h) was > 500 µM and the “MIC KP” value ([2]; 24 h) was > 500 µM. For the same compound, the “MIC KP” value ([2]; 48 h) was > 500 µM.

`O=C(Nc1cnc(Cl)cn1)c1ccccc1` [Compound 2a] was tested, and the “MIC KP-E” value ([1]; 24 h) was > 500 µM, the “MIC KP-E” value ([1]; 48 h) was > 500 µM and the “MIC KP” value ([2]; 24 h) was > 500 µM. For the same compound, the “MIC KP” value ([2]; 48 h) was > 500 µM.

With `CC(=O)Oc1ccccc1C(=O)Nc1cnc(Cl)cn1` [Compound 2b-Ac] the “MIC KP-E” value ([1]; 24 h) was > 250 µM, the “MIC KP-E” value ([1]; 48 h) was > 250 µM and the “MIC KP” value ([2]; 24 h) was > 250 µM. For the same compound, the “MIC KP” value ([2]; 48 h) was > 250 µM.

For `CC1(C)S[C@@H]2[C@H](NC(=O)COc3ccccc3)C(=O)N2[C@H]1C(=O)O` [Phen, phenoxymethylpenicillin, reference compound], the “MIC KP-E” value ([1]; 24 h) was > 500 µM, the “MIC KP-E” value ([1]; 48 h) was > 500 µM and the “MIC KP” value ([2]; 24 h) was > 500 µM. The “MIC KP” value ([2]; 48 h) was > 500 µM.

In the case of `O=C(c1ccc(Cl)cc1)N(C(=O)c1ccc(Cl)cc1)c1cnccn1` [Compound 1l-SP], the “MIC KP-E” value ([1]; 24 h) is reported as > 125 µM, the “MIC KP-E” value ([1]; 48 h) is reported as > 125 µM and the “MIC KP” value ([2]; 24 h) is reported as > 125 µM. The “MIC KP” value ([2]; 48 h) was > 125 µM.

With `COc1ccc(C(=O)Nc2cnc(Cl)cn2)cc1` [Compound 2g] the “MIC KP-E” value ([1]; 24 h) was > 125 µM, the “MIC KP-E” value ([1]; 48 h) was > 125 µM and the “MIC KP” value ([2]; 24 h) was > 125 µM. For the same compound, the “MIC KP” value ([2]; 48 h) was > 125 µM.

With `CC(=O)Oc1cccc(C(=O)Nc2cnc(Cl)cn2)c1` [Compound 2c-Ac] the “MIC KP-E” value ([1]; 24 h) was > 125 µM, the “MIC KP-E” value ([1]; 48 h) was > 125 µM and the “MIC KP” value ([2]; 24 h) was > 125 µM. The “MIC KP” value ([2]; 48 h) was > 125 µM.

For `O=C(Nc1cnc(Cl)cn1)c1ccc(Br)cc1` [Compound 2m], the “MIC KP-E” value ([1]; 24 h) was > 125 µM, the “MIC KP-E” value ([1]; 48 h) was > 125 µM and the “MIC KP” value ([2]; 24 h) was > 125 µM. The “MIC KP” value ([2]; 48 h) was > 125 µM.

`O=C(Nc1cnccn1)c1ccccc1Cl` [Compound 1j] was tested, and the “MIC KP-E” value ([1]; 24 h) was > 500 µM, the “MIC KP-E” value ([1]; 48 h) was > 500 µM and the “MIC KP” value ([2]; 24 h) was > 500 µM. The “MIC KP” value ([2]; 48 h) was > 500 µM.

With `O=C(Nc1cnccn1)c1cccc(O)c1` [Compound 1c] the “MIC KP-E” value ([1]; 24 h) was > 500 µM, the “MIC KP-E” value ([1]; 48 h) was > 500 µM and the “MIC KP” value ([2]; 24 h) was > 500 µM. The “MIC KP” value ([2]; 48 h) was > 500 µM.

With `O=C(Nc1cnccn1)c1ccc(Cl)cc1` [Compound 1l] the “MIC KP-E” value ([1]; 24 h) was > 125 µM, the “MIC KP-E” value ([1]; 48 h) was > 125 µM and the “MIC KP” value ([2]; 24 h) was > 125 µM. For the same compound, the “MIC KP” value ([2]; 48 h) was > 125 µM.

With `O=C(Nc1cnccn1)c1ccccc1` [Compound 1a] the “MIC KP-E” value ([1]; 24 h) was > 500 µM, the “MIC KP-E” value ([1]; 48 h) was > 500 µM and the “MIC KP” value ([2]; 24 h) was > 500 µM. The “MIC KP” value ([2]; 48 h) was > 500 µM.

`COc1cccc(C(=O)Nc2cnccn2)c1` [Compound 1f] was tested, and the “MIC KP-E” value ([1]; 24 h) was > 500 µM, the “MIC KP-E” value ([1]; 48 h) was > 500 µM and the “MIC KP” value ([2]; 24 h) was > 500 µM. The “MIC KP” value ([2]; 48 h) was > 500 µM.

In the case of `COc1cccc(C(=O)Nc2cnc(Cl)cn2)c1` [Compound 2f], the “MIC KP-E” value ([1]; 24 h) is reported as > 500 µM, the “MIC KP-E” value ([1]; 48 h) is reported as > 500 µM and the “MIC KP” value ([2]; 24 h) is reported as > 500 µM. For the same compound, the “MIC KP” value ([2]; 48 h) was > 500 µM.

In the case of `CC(=O)Oc1cccc(C(=O)Nc2cnccn2)c1` [Compound 1c-Ac], the “MIC KP-E” value ([1]; 24 h) is reported as > 500 µM, the “MIC KP-E” value ([1]; 48 h) is reported as > 500 µM and the “MIC KP” value ([2]; 24 h) is reported as > 500 µM. The “MIC KP” value ([2]; 48 h) was > 500 µM.

With `COc1ccccc1C(=O)Nc1cnc(Cl)cn1` [Compound 2e] the “MIC KP-E” value ([1]; 24 h) was > 125 µM, the “MIC KP-E” value ([1]; 48 h) was > 125 µM and the “MIC KP” value ([2]; 24 h) was > 125 µM. For the same compound, the “MIC KP” value ([2]; 48 h) was > 125 µM.

`O=C(Nc1cnc(Cl)cn1)c1cccc(Cl)c1` [Compound 2k] was tested, and the “MIC KP-E” value ([1]; 24 h) was > 125 µM, the “MIC KP-E” value ([1]; 48 h) was > 125 µM and the “MIC KP” value ([2]; 24 h) was > 125 µM. The “MIC KP” value ([2]; 48 h) was > 125 µM.

In the case of `CC1(C)S[C@@H]2[C@H](NC(=O)Cc3ccccc3)C(=O)N2[C@H]1C(=O)O` [Pen, benzylpenicillin, reference compound], the “MIC KP-E” value ([1]; 24 h) is reported as > 500 µM, the “MIC KP-E” value ([1]; 48 h) is reported as > 500 µM and the “MIC KP” value ([2]; 24 h) is reported as 250 µM (≈ 83.6 µg/mL). For the same compound, the “MIC KP” value ([2]; 48 h) was 500 µM (≈ 167 µg/mL).

With `CC(=O)Oc1ccc(C(=O)Nc2cnc(Cl)cn2)cc1` [Compound 2d-Ac] the “MIC KP-E” value ([1]; 24 h) was > 125 µM, the “MIC KP-E” value ([1]; 48 h) was > 125 µM and the “MIC KP” value ([2]; 24 h) was > 125 µM. For the same compound, the “MIC KP” value ([2]; 48 h) was > 125 µM.

With `O=C(Nc1cnccn1)c1cccc(Cl)c1` [Compound 1k] the “MIC KP-E” value ([1]; 24 h) was > 125 µM, the “MIC KP-E” value ([1]; 48 h) was > 125 µM and the “MIC KP” value ([2]; 24 h) was > 125 µM. The “MIC KP” value ([2]; 48 h) was > 125 µM.

With `Cc1ccc(C(=O)Nc2cnc(Cl)cn2)cc1` [Compound 2h] the “MIC KP-E” value ([1]; 24 h) was > 125 µM, the “MIC KP-E” value ([1]; 48 h) was > 125 µM and the “MIC KP” value ([2]; 24 h) was > 125 µM. The “MIC KP” value ([2]; 48 h) was > 125 µM.

For `O=C(Nc1cncc(Cl)n1)c1cccc(Cl)c1` [Compound 3k], the “MIC KP-E” value ([1]; 24 h) was > 125 µM, the “MIC KP-E” value ([1]; 48 h) was > 125 µM and the “MIC KP” value ([2]; 24 h) was > 125 µM. The “MIC KP” value ([2]; 48 h) was > 125 µM.

For `COc1ccccc1C(=O)Nc1cncc(Cl)n1` [Compound 3e], the “MIC KP-E” value ([1]; 24 h) was > 500 µM, the “MIC KP-E” value ([1]; 48 h) was > 500 µM and the “MIC KP” value ([2]; 24 h) was > 500 µM. For the same compound, the “MIC KP” value ([2]; 48 h) was > 500 µM.

With `CCc1ccc(C(=O)Nc2cnccn2)cc1` [Compound 1i] the “MIC KP-E” value ([1]; 24 h) was > 500 µM, the “MIC KP-E” value ([1]; 48 h) was > 500 µM and the “MIC KP” value ([2]; 24 h) was > 500 µM. For the same compound, the “MIC KP” value ([2]; 48 h) was > 500 µM.

In the case of `Cc1ccc(C(=O)Nc2cnccn2)cc1` [Compound 1h], the “MIC KP-E” value ([1]; 24 h) is reported as > 500 µM, the “MIC KP-E” value ([1]; 48 h) is reported as > 500 µM and the “MIC KP” value ([2]; 24 h) is reported as > 500 µM. For the same compound, the “MIC KP” value ([2]; 48 h) was > 500 µM.

With `O=C(Nc1cnc(Cl)cn1)c1ccc(O)cc1` [Compound 2d] the “MIC KP-E” value ([1]; 24 h) was > 500 µM, the “MIC KP-E” value ([1]; 48 h) was > 500 µM and the “MIC KP” value ([2]; 24 h) was > 500 µM. The “MIC KP” value ([2]; 48 h) was > 500 µM.

For `O=C(Nc1cnc(Cl)cn1)c1ccccc1Cl` [Compound 2j], the “MIC KP-E” value ([1]; 24 h) was > 500 µM, the “MIC KP-E” value ([1]; 48 h) was > 500 µM and the “MIC KP” value ([2]; 24 h) was > 500 µM. The “MIC KP” value ([2]; 48 h) was > 500 µM.

For `COc1ccc(C(=O)Nc2cnccn2)cc1` [Compound 1g], the “MIC KP-E” value ([1]; 24 h) was > 500 µM, the “MIC KP-E” value ([1]; 48 h) was > 500 µM and the “MIC KP” value ([2]; 24 h) was > 500 µM. The “MIC KP” value ([2]; 48 h) was > 500 µM.

From publication PMC6225228, “Design, Synthesis and Evaluation of N-pyrazinylbenzamides as Potential Antimycobacterial Agents” (Molecules : A Journal of Synthetic Chemistry and Natural …, 2018)
